Experimental data from the supplement of paper PMC4967469.
Lines with a small IC50 respond at low doses; a fit beyond the top or the lowest dose is shown as a bound at that dose. AUC is the area under the same curve over the 256-fold range up to the top dose, as a fraction; the more sensitive the line, the further below 1. For some of these results: Any top dose called inferred is not printed in the source and was worked back from the curve model. For some of these results: Where an entry number is given, a second screen of the drug exists; the two often differ.

Assays:
Test in all cases: Viability of human cancer cell lines after 72 h of drug (GDSC screen)
Tamoxifen = compound: CC/C(=C(\c1ccccc1)c1ccc(OCCN(C)C)cc1)c1ccccc1 [Tamoxifen]; conditions: top dose 5 µM
Experimental: (§1)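 Human cancer cell lines in 384-well plates, medium with 10% serum, drug for 72 h over a 256-fold dose range (nine 2-fold or five 4-fold steps up to the top dose). Adherent lines were fixed and stained with the nucleic acid dye Syto60, suspension lines read with resazurin; signal relative to control wells, capped at 0 and 100%. One two-parameter sigmoid per drug and line, fitted in a mixed model over all curves with the slope shared within a line.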

VNLG/124 = compound: CCCC(=O)OCc1ccc(OC(=O)/C=C(C)/C=C/C=C(C)/C=C/C2=C(C)CCCC2(C)C)cc1 [VNLG/124]; conditions: top dose 5.12 µM; top dose inferred
Experimental: as §1

Masitinib = compound: Cc1ccc(NC(=O)c2ccc(CN3CCN(C)CC3)cc2)cc1Nc1nc(-c2cccnc2)cs1 [Masitinib]; conditions: top dose 20 µM
Experimental: as §1

BX-912 = compound: O=C(Nc1cccc(Nc2ncc(Br)c(NCCc3cnc[nH]3)n2)c1)N1CCCC1 [BX-912]; conditions: top dose 10.24 µM; top dose inferred
Experimental: as §1

Bleomycin = compound: Cc1c(N)nc([C@H](CC(N)=O)NC[C@H](N)C(N)=O)nc1C(=O)N[C@H](C(=O)N[C@H](C)[C@@H](O)[C@H](C)C(=O)N[C@H](C(=O)NCCc1nc(-c2nc(C(=O)NCCC[S+](C)C)cs2)cs1)[C@@H](C)O)[C@@H](OC1OC(CO)C(O)C(O)C1OC1OC(CO)C(O)C(OC(N)=O)C1O)c1cnc[nH]1 [Bleomycin]; conditions: top dose 50 µM; screen: GDSC drug entry 1378; top dose inferred
Experimental: as §1

Elesclomol = compound: CN(NC(=O)CC(=O)NN(C)C(=S)c1ccccc1)C(=S)c1ccccc1 [Elesclomol]; conditions: top dose 0.2 µM; top dose inferred
Experimental: as §1

OSI-930 = compound: O=C(Nc1ccc(OC(F)(F)F)cc1)c1sccc1NCc1ccnc2ccccc12 [OSI-930]; conditions: top dose 10.24 µM
Experimental: as §1

HG-5-88-01 = compound: COc1cc(N2CCC(C(N)=O)CC2)ccc1Nc1nc(N)c(Cl)c(Nc2ccccc2S(=O)(=O)C(C)C)n1 [HG-5-88-01]; conditions: top dose 10 µM; top dose inferred
Experimental: as §1

Cell Line | AUC (Tamoxifen) | IC50 (Tamoxifen) [µM] | AUC (VNLG/124) | IC50 (VNLG/124) [µM] | AUC (Masitinib) | IC50 (Masitinib) [µM] | AUC (BX-912) | IC50 (BX-912) [µM] | AUC (Bleomycin) | IC50 (Bleomycin) [µM] | AUC (Elesclomol) | IC50 (Elesclomol) [µM] | AUC (OSI-930) | IC50 (OSI-930) [µM] | AUC (HG-5-88-01) | IC50 (HG-5-88-01) [µM]
QGP-1 (pancreas, adherent) | 0.965 | > 5 | 0.978 | > 5.12 | 0.921 | > 20 | 0.909 | > 10.2 | 0.942 | > 50 | 0.94 | > 0.2 | 0.973 | > 10.2 | 0.932 | > 10
TE-4 (oesophagus, adherent) | 0.95 | > 5 | 0.981 | > 5.12 | 0.888 | > 20 | 0.967 | > 10.2 | 0.664 | 8.93 | 0.522 | 0.0143 | 0.97 | > 10.2 | 0.939 | > 10
SNU-C5 (large intestine, adherent) | 0.984 | > 5 | 0.986 | > 5.12 | 0.969 | > 20 | 0.94 | > 10.2 | 0.723 | 14.4 | 0.705 | 0.0506 | 0.98 | > 10.2 | 0.908 | > 10
UWB1.289 (ovary, adherent) | 0.977 | > 5 | 0.98 | > 5.12 | 0.972 | > 20 | 0.926 | > 10.2 | 0.713 | 17.1 | 0.729 | 0.0794 | 0.965 | > 10.2 | 0.942 | > 10
NCC021 (kidney, adherent) | 0.981 | > 5 | 0.984 | > 5.12 | 0.888 | > 20 | 0.962 | > 10.2 | 0.493 | 2.99 | 0.811 | 0.128 | 0.974 | > 10.2 | 0.943 | > 10
Hey (ovary, adherent) | 0.986 | > 5 | 0.987 | > 5.12 | 0.863 | 15.7 | 0.893 | > 10.2 | 0.158 | 0.303 | 0.311 | 0.00382 | 0.981 | > 10.2 | 0.964 | > 10
OC-314 (ovary, adherent) | 0.987 | > 5 | 0.991 | > 5.12 | 0.884 | 16.3 | 0.963 | > 10.2 | 0.186 | 0.435 | 0.931 | > 0.2 | 0.987 | > 10.2 | 0.985 | > 10
RCC-FG2 (kidney, adherent) | 0.964 | > 5 | 0.977 | > 5.12 | 0.813 | 14.8 | 0.943 | > 10.2 | 0.831 | 44.6 | 0.462 | 0.00958 | 0.978 | > 10.2 | 0.96 | > 10
OV-17R (ovary, adherent) | 0.978 | > 5 | 0.98 | > 5.12 | 0.796 | 14 | 0.922 | > 10.2 | 0.642 | 9.09 | 0.401 | 0.00598 | 0.957 | > 10.2 | 0.961 | > 10
YH-13 (glioma, adherent) | 0.978 | > 5 | 0.974 | > 5.12 | 0.891 | > 20 | 0.784 | 4.63 | 0.483 | 2.8 | 0.613 | 0.026 | 0.986 | > 10.2 | 0.905 | > 10
OVCA433 (ovary, adherent) | 0.97 | > 5 | 0.983 | > 5.12 | 0.953 | > 20 | 0.924 | > 10.2 | 0.55 | 4.35 | 0.455 | 0.00928 | 0.977 | > 10.2 | 0.938 | > 10
SK-MEL-5 (melanoma, adherent) | 0.98 | > 5 | 0.98 | > 5.12 | 0.896 | > 20 | 0.962 | > 10.2 | 0.771 | 23.6 | 0.665 | 0.0401 | 0.98 | > 10.2 | 0.94 | > 10
OV-56 (ovary, adherent) | 0.977 | > 5 | 0.987 | > 5.12 | 0.884 | > 20 | 0.964 | > 10.2 | 0.449 | 2.28 | 0.543 | 0.0163 | 0.98 | > 10.2 | 0.975 | > 10
SNU-81 (large intestine, adherent) | 0.98 | > 5 | 0.982 | > 5.12 | 0.956 | > 20 | 0.965 | > 10.2 | 0.68 | 11.9 | 0.908 | > 0.2 | 0.98 | > 10.2 | 0.887 | > 10
SK-GT-4 (oesophagus, adherent) | 0.969 | > 5 | 0.982 | > 5.12 | 0.876 | > 20 | 0.919 | > 10.2 | 0.826 | 40.7 | 0.25 | 0.00197 | 0.982 | > 10.2 | 0.947 | > 10
FLO-1 (oesophagus, adherent) | 0.971 | > 5 | 0.975 | > 5.12 | 0.942 | > 20 | 0.836 | > 10.2 | 0.34 | 0.915 | 0.426 | 0.00716 | 0.973 | > 10.2 | 0.927 | > 10
